# Measured values published in the supplement of paper PMC3334620.
# Over roughly 33,000 sequences, “E-score (-0.5 to 0.5)” has its median near -0.01; the highest 2% begin near 0.26. Some of the results follow.
# Biological target: Ste12 (UniProt P13574)
# Experiment: PBM E-score (8-mer binding enrichment) (E-score (-0.5 to 0.5)); higher = stronger / more preferred TF binding; most listed sequences are background and not binding sites
# Settings: protein concentration: 200 nM; construct: GST-DNA-binding domain
# Outline: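 Bound GST-tagged yeast transcription factors, applied at about 100-200 nM to double-stranded universal all-10-mer Agilent arrays, were detected with fluorescent anti-GST. Scans were normalised with masliner. A modified Wilcoxon-Mann-Whitney statistic, the E-score, was assigned to each ungapped eight-base word pooled with its reverse complement by the Universal PBM Analysis Suite.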
row,Sequence,PBM E-score
1,CAAAAGAA,0.156
2,CTCTGTGC,-0.0785
3,CAAGATTA,0.116
4,CTTGTCTC,0.0745
5,AAAGCCCC,-0.188
6,CGGTGTTC,0.0606
7,AGGAGGAG,-0.136
8,CTTTGATA,0.179
9,ACAGGCGT,-0.238
10,ATCTTTAA,0.0393
11,ACTTATAT,0.181
12,AAGGAGCC,-0.199
13,AAACTTTC,0.11
14,AGGGGCGC,0.0204
15,GCATAACA,0.0198
16,CGATCGAG,0.0464
17,ATTGATGC,0.206
18,ACGGTTTA,-0.294
19,ACTTATCT,0.0489
20,AGAGGCCG,-0.288
21,ATATAAAA,0.307
22,CCGGCACA,-0.0858
23,GCTTTTAC,0.095
24,GTGAACGA,0.047
25,GCGGTTAA,0.0154

row,Sequence,PBM E-score
1,GACCTAGC,-0.178
2,CTCGTGAA,0.0434
3,CCATCGGA,-0.165
4,CACGAGAA,0.123
5,ATAAACGA,0.243
6,CAACGACG,-0.039
7,AGCGTGTG,0.0207
8,GCGGCCGC,0.119
9,ACGAAGTC,-0.0818
10,ACACTCAT,0.0659
11,CCCTAATC,-0.0375
12,CATGCCCA,-0.203
13,ACGAAAGG,0.0336
14,ACTCTAGA,0.0724
15,ATCTTGGA,0.0698
16,GTTGTTTA,0.155
17,AGGCCAAC,-0.243
18,CGAGACAC,-0.0767
19,CAGACCGG,-0.185
20,CTGAATCA,0.181
21,GCATGGAC,-0.0826
22,GCACGGGC,-0.0847
23,ATCTTTTA,0.131
24,AAAGCCGT,0.0271
25,CTGAATGA,0.0145

row,Sequence,PBM E-score
1,AAAACTGC,-0.0235
2,CTACAGCC,-0.126
3,CTAGGAAC,-0.0455
4,ACAGGGCC,-0.15
5,AACCGTTG,-0.159
6,CGTGGACA,-0.0179
7,ACGGTCGA,-0.0811
8,CGCATGCG,0.0199
9,AACGGCGC,-0.0862
10,CGTCCGAA,0.0274
11,GTCTTTTA,-0.034
12,CACGGCAG,0.0609
13,AGATTTTC,0.0703
14,CGTCAGAC,-0.0997
15,ATGATGTG,-0.0189
16,ATAGGTCC,-0.0899
17,AACGTAAA,0.153
18,AGTGCCCG,-0.158
19,CTGCGCTC,-0.219
20,GCAAGTGC,-0.217
21,AACCCTAA,-0.0607
22,ATAGAAGG,-0.0546
23,AGCCCCTG,-0.214
24,GACGTCAA,-0.138
25,ACGCGTCT,0.0311

row,Sequence,PBM E-score
1,AGCCTCCC,-0.116
2,ATACACTA,0.0879
3,CCGACTGA,0.0911
4,CCGACGCC,0.109
5,AATAGGGT,0.148
6,CACACTCA,0.0712
7,ATGTGGCG,-0.081
8,GCCCTCGC,-0.0381
9,GTGTATAA,-0.15
10,CCCGGGCC,-0.194
11,AATTGTCC,0.148
12,ACAGTACA,0.00937
13,AGATCGGA,0.129
14,CCTGATTA,0.091
15,CAAGTATG,0.0625
16,TCGAGCGA,-0.0486
17,CAAATCAA,0.194
18,CCGCACAC,0.0886
19,ACACAAAG,0.051
20,CACGCTCC,-0.131
21,CAGATATA,0.0413
22,CGAATCCG,0.0624
23,AAAAGCCT,-0.232
24,ATAGTCAT,-0.141
25,ATTCGCGA,0.0844

row,Sequence,PBM E-score
1,CCCCCCCG,-0.257
2,CCTTTAAC,0.0881
3,AATCCTTA,-0.0708
4,GAAGTCAA,0.12
5,AGCCTTTC,-0.246
6,ATTCAACA,0.111
7,CCGACCCA,0.0514
8,GACTGTGC,-0.0863
9,CCCCTGCG,-0.0485
10,CAAAGGCC,-0.0534
11,ACGGGCCA,-0.14
12,CGCCGGCA,-0.0585
13,GTGACAGA,-0.0744
14,ACTGAACG,-0.163
15,ATTGTACA,-0.04
16,TTATGCAA,0.0901
17,AAGTACGC,-0.102
18,ACGCTGGC,-0.128
19,AACAGTAC,0.014
20,CTTGAGGC,-0.184
21,CCTTTTTC,0.134
22,GTAGTTTA,0.157
23,GAATAGCA,-0.132
24,AGACTTTA,-0.0902
25,AGCACAGA,0.172

row,Sequence,PBM E-score
1,GAAATCTA,0.195
2,ATGTCTGG,0.0356
3,CCTGTCGC,0.0402
4,AGAATTCT,0.191
5,AGGGAATG,-0.0251
6,AGACAGTG,-0.111
7,GCTGCACA,-0.276
8,ACTTGAGG,-0.153
9,CAAGGACG,-0.182
10,ACCTAACA,0.0432
11,GAAACGAC,0.317
12,AAAAAAAC,0.331
13,ACCCCGTA,0.0615
14,GACGAACA,-0.0924
15,ATTCAAGA,-0.0178
16,AGTTGGGG,0.00712
17,CAAAAGGA,-0.0652
18,CGCACATA,-0.244
19,AGAGAGCT,-0.158
20,CCAGGCCG,0.039
21,CTCGTCTA,-0.194
22,AAGTACAC,0.0171
23,AAGCAATA,0.0028
24,ATAGGCCC,0.126
25,AACGGCTA,-0.149

row,Sequence,PBM E-score
1,GTCCTCAC,-0.139
2,GGCAGAAA,0.121
3,CGCTAGTC,-0.27
4,GTTTTTCA,0.217
5,AGTTCCGC,0.0333
6,ACGAGGAT,-0.149
7,CTCCTTAC,-0.0238
8,AGCGTCCT,-0.135
9,ACATTAAC,0.202
10,ACTGCTCA,-0.00239
11,GGTCCTTA,0.0224
12,AGATTCCG,0.162
13,GCGGGCCC,0.0394
14,CCCTCTTC,-0.0279
15,ATTCCCAA,0.14
16,TGACTCAA,-0.0949
17,ATCCAAAT,0.0589
18,GAAAACCA,0.214
19,ATCGCATA,0.0659
20,ATGGGATA,-0.0812
21,GGTTTGGA,0.179
22,AGTTATGC,0.143
